# From the BET-seq Pho4 binding data (Le et al. 2018)
# The list shows a part of the results. Values were computed here from the reads of four pooled replicates and scatter widely.
# Molecular target: T1, Pho4 (S. cerevisiae) (UniProt P07270)
# T1 sequence: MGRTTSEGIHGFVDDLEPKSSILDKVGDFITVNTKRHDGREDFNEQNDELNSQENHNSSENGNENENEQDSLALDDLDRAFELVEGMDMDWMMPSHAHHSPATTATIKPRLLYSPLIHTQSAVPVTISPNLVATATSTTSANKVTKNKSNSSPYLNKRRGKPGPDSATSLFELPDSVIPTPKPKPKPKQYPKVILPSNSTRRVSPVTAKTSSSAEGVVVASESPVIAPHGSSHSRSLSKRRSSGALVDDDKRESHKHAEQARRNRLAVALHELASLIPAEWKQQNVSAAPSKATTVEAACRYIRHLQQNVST
# Test: relative binding free energy (BET-seq); higher = weaker binding
# Conditions: reference: library average
row,Sequence,relative binding free energy [kcal/mol]
1,TGCTACACGTGTGGAT,0.15
2,TATTACACGTGTGAAG,0.13
3,ATTGCCACGTGTATTG,-0.07
4,ATGATCACGTGTAAAT,0.24
5,TAGTACACGTGGGGAT,-0.02
6,AACGTCACGTGCGTGG,0.04
7,CTTTTCACGTGAGTAT,0.47
8,GGGTTCACGTGTAAGA,0.39
9,GTGGGCACGTGGTTAC,-0.01
10,AAGGCCACGTGGTGAT,0.07
11,ATTGGCACGTGCGCTT,-0.21
12,TAAGGCACGTGAGAGG,0.06
13,TGCTGCACGTGTTAGT,-0.12
14,CTAGGCACGTGAGTAA,0.2
15,AGGTACACGTGAATAG,0.31
16,TTATGCACGTGCATAA,-0.02
17,GTGGTCACGTGCGTAA,-0.02
18,TATGACACGTGCAGTT,0.03
19,CGTGTCACGTGTAACG,0.27
20,GGTACCACGTGTTGAT,-0.08
21,ATAGGCACGTGAGTTG,0.09
22,ATTTGCACGTGGAATA,-0.05
23,TGGGTCACGTGATTAT,0.28
24,TTCGTCACGTGGCAGG,-0.08
25,TGGTCCACGTGTAGAT,0.35
26,CGTTACACGTGTTGGG,0.1

row,Sequence,relative binding free energy [kcal/mol]
1,AATGTCACGTGATTTA,0.24
2,TAACGCACGTGTTGTT,-0.18
3,CGTTGCACGTGATGTG,0.05
4,TCGTACACGTGTGGCG,0.12
5,TTTGGCACGTGATGAG,0
6,ATGTCCACGTGTGTGT,0.06
7,GGGTCCACGTGATGAG,0.12
8,GATAGCACGTGCAGTT,0.05
9,ACAGGCACGTGGTGTT,-0.21
10,ATGGTCACGTGCTGGC,0.22
11,TTTCACACGTGCTGTT,0.08
12,TGCTACACGTGGAGTG,-0.02
13,ATTAACACGTGGCGGG,-0.23
14,CGGGACACGTGTTTCG,0.17
15,GTGAACACGTGGCGGT,0.02
16,ATTATCACGTGGTGTT,0.06
17,TTGTCCACGTGATGCG,0.31
18,AATTTCACGTGTTAAG,0.27
19,TGGTTCACGTGATAAT,0.23
20,ATATGCACGTGGTTAG,-0.13
21,GGGGGCACGTGAATAT,0.26
22,TTATCCACGTGTATGG,0.07
23,GTTGACACGTGTTACG,0.24
24,GTATACACGTGGAGCG,0.19
25,TGGCGCACGTGAGTTT,0.15
26,TCGTGCACGTGCGTGG,-0.1

row,Sequence,relative binding free energy [kcal/mol]
1,GGGTTCACGTGACGAT,0.5
2,GGTTTCACGTGGATGC,0.21
3,TTGTGCACGTGCTCAG,-0.04
4,AGATGCACGTGTATAG,0.05
5,ATTGCCACGTGTTGGA,-0.06
6,GTATGCACGTGTTGGC,0.01
7,GGTTTCACGTGGCTGC,0.2
8,ATAAGCACGTGTTGTG,-0.1
9,TGATGCACGTGTTAGC,0.04
10,TATATCACGTGGATAT,0.15
11,ACGTTCACGTGTGTTA,0.3
12,GAATGCACGTGGTGTT,0.02
13,AAGTTCACGTGAATAG,0.39
14,GTTTGCACGTGCGGCG,0.02
15,AGTTACACGTGTTAAG,0.06
16,ATATTCACGTGGGCTC,0.25
17,TGTCTCACGTGTGATG,0.3
18,GGGGGCACGTGTGAAT,0.04
19,GGGAACACGTGGTATA,-0.06
20,GAGTTCACGTGTGGGG,0.43
21,CTTGGCACGTGGATGC,-0.09
22,TGTGTCACGTGTTCGT,0.05
23,TTTAGCACGTGGACGT,-0.15
24,GGGACCACGTGGAGGT,-0.06
25,GTTTTCACGTGGAGAG,0.38
26,GGGCTCACGTGTGCAT,0.34

row,Sequence,relative binding free energy [kcal/mol]
1,TGGTGCACGTGGTAGA,-0.03
2,TCAGGCACGTGTAGGA,-0.1
3,GGGGTCACGTGAATTA,0.34
4,CAGGTCACGTGAGGGG,0.3
5,ATTGTCACGTGCTGTT,0.03
6,TTAAGCACGTGTGGGT,-0.03
7,TTAGGCACGTGGGGAC,-0.18
8,GTCAGCACGTGTGGAA,0.08
9,TTGATCACGTGAGAGT,0.31
10,ATGTTCACGTGACGGA,0.25
11,TATTGCACGTGCGATG,0.16
12,GGCTTCACGTGGAAGT,0.33
13,CTGGTCACGTGTAGGG,0.22
14,TAGTGCACGTGGTAAT,0
15,AGGTGCACGTGTCTGT,-0.07
16,AGGCGCACGTGCGGGA,-0.08
17,AGAGGCACGTGGTGCA,-0.17
18,TGTCCCACGTGGTGTG,-0.21
19,ATATGCACGTGTAGTT,-0.04
20,GCGTGCACGTGCGCGG,-0.13
21,TGTTTCACGTGCTCTG,0.07
22,ATTGCCACGTGTATGT,-0.11
23,TTTGCCACGTGAGGGT,0.21
24,GTGTGCACGTGACCGG,0
25,AGGTGCACGTGCGAGT,0.07
26,ATAGGCACGTGTATGA,-0.06

row,Sequence,relative binding free energy [kcal/mol]
1,AGGGTCACGTGTGAGG,0.19
2,GTGTGCACGTGACGTT,0.15
3,AGTAACACGTGGCAGG,-0.08
4,AACTGCACGTGCGTGG,-0.04
5,TTTCTCACGTGTGTCT,0.15
6,GTTGACACGTGAGCGG,0.26
7,CGATGCACGTGCTGGA,0.08
8,GTTGTCACGTGTGTCA,0.12
9,GGGAGCACGTGCGGGG,-0.12
10,GTTAACACGTGTTTTC,0.12
11,GATAGCACGTGGGCCG,-0.07
12,ATCAGCACGTGGTTTG,-0.19
13,TGGGCCACGTGTTCGG,-0.09
14,TGTTGCACGTGCTAGG,0.02
15,ATTTTCACGTGGGTTA,0.15
16,GTCGCCACGTGGGGAG,0.06
17,GGTTGCACGTGGAGTG,0.15
18,AGTGTCACGTGAATGC,0.1
19,GGGGGCACGTGATGGC,0.05
20,CTGGTCACGTGGGTTG,-0.04
21,GTAGTCACGTGCAGGG,0.05
22,AATTGCACGTGATAGG,0.01
23,TGTCGCACGTGGTTCG,-0.07
24,TTGTTCACGTGTAGTG,0.33
25,TGGTGCACGTGCCGTT,-0.07
26,TGCGGCACGTGGCCGT,-0.23

row,Sequence,relative binding free energy [kcal/mol]
1,AATAGCACGTGCTTGT,-0.19
2,TTGGGCACGTGAGGTG,0.17
3,GTTTCCACGTGAGTTA,0.26
4,GTCATCACGTGTAGTT,0.4
5,ATGCTCACGTGGGGTC,0.15
6,GGGAACACGTGGTTTA,0.04
7,TTAAGCACGTGTTCGT,-0.22
8,GTTCTCACGTGTGTGG,0.23
9,GTACTCACGTGGCGGG,0.18
10,ACCGGCACGTGGGGAG,-0.1
11,TGGAGCACGTGATTAG,0.17
12,TCGCGCACGTGTGGTG,-0.12
13,ATTATCACGTGATAAT,0.15
14,CTGGTCACGTGTGCAT,0.06
15,GTAGACACGTGCGTGG,-0.13
16,TTGTACACGTGATTCG,0.08
17,TGGGTCACGTGCGCAT,-0.07
18,TTCGACACGTGGTGAG,0.05
19,GAATGCACGTGAAGTT,0.32
20,TCGGGCACGTGTAAAG,-0.03
21,GGATCCACGTGTGGGT,0.07
22,TGGTTCACGTGCATGA,0.17
23,TTAAACACGTGGCGTT,-0.09
24,TAGAGCACGTGGGGTT,-0.21
25,ATTGGCACGTGGAAGA,0.04
26,GGGTTCACGTGTAATA,0.45

row,Sequence,relative binding free energy [kcal/mol]
1,AGTCGCACGTGGCGGG,-0.1
2,GTGCTCACGTGTGTAT,0.15
3,GTTAGCACGTGGCTTG,0.01
4,CATGGCACGTGCTAGG,0.01
5,AACGGCACGTGTGAGG,-0.01
6,GAAAACACGTGGATGG,0.14
7,TCGTTCACGTGGGTCT,0.03
8,TTATACACGTGGTCAT,-0.07
9,TAATGCACGTGGTGAG,-0.16
10,CTTTTCACGTGTAGTC,0.39
11,TATCTCACGTGCGGGG,0.14
12,AGTGGCACGTGGGCGA,-0.31
13,GAGGTCACGTGTTCGG,0.14
14,TGTTGCACGTGTAGTA,0.07
15,TTCTTCACGTGGCGTT,0.19
16,GTGATCACGTGTTGTT,0.17
17,AATAGCACGTGATGGG,-0.14
18,ATCAACACGTGAGGTA,0.38
19,GATTACACGTGGTGGG,0.18
20,AGTGGCACGTGAGAGA,0.2
21,GAACGCACGTGTCGGG,0.14
22,ATCTCCACGTGTGTGT,0.01
23,TCTAGCACGTGGGGGT,-0.1
24,GGTCACACGTGAGGGG,0.23
25,GGCGACACGTGTGGCT,0.24
26,AGAAGCACGTGGGGCG,-0.36

row,Sequence,relative binding free energy [kcal/mol]
1,AGCGTCACGTGAGGAA,0.45
2,TGGAACACGTGGGGAA,-0.17
3,GTCGGCACGTGGGGAC,-0.06
4,GGGCGCACGTGGCTGT,-0.1
5,AGAAACACGTGAGGTG,0.25
6,ATGGGCACGTGATGTA,-0.11
7,GTTTTCACGTGTGGAT,0.38
8,TATATCACGTGTGTTG,0.13
9,AGGTGCACGTGACGGC,0.14
10,GAGGACACGTGGGGTA,-0.17
11,CTGGGCACGTGTTTCG,-0.08
12,CAATGCACGTGGGATT,-0.04
13,AGTTGCACGTGGTTCG,-0.02
14,ACAGACACGTGTTAGT,0.16
15,TGGCACACGTGACTGG,0.31
16,AGCGTCACGTGGTGCT,-0.06
17,TAGGTCACGTGACTGT,0.24
18,GCGGTCACGTGTAGGA,0.27
19,TTCGGCACGTGCGGGT,-0.11
20,GTGCTCACGTGTCGAG,0.28
21,ATTGGCACGTGGCGTT,-0.17
22,ATTTACACGTGTGGAT,0.26
23,TGGAACACGTGGAGAG,0.08
24,TTTGTCACGTGACGGT,0.13
25,GGCTGCACGTGTGCGC,0.11
26,CGTGGCACGTGTGTAG,0.01

row,Sequence,relative binding free energy [kcal/mol]
1,TTATCCACGTGTTAGA,0.04
2,AGTCGCACGTGTATGT,0.07
3,ATTTTCACGTGTGGGC,0.31
4,CTGATCACGTGGTGAA,0.22
5,TGTTGCACGTGTTTAA,-0.05
6,AGTAGCACGTGGAGGC,-0.23
7,TTGGGCACGTGATTCT,0.1
8,ATAGACACGTGAGGAT,0.24
9,TTAACCACGTGTTAGT,-0.07
10,AATTACACGTGGGTCT,0.01
11,CTTAGCACGTGTGGCA,-0.04
12,GTGGACACGTGTACGG,0.08
13,GTGATCACGTGGTTTG,0.24
14,GGTAACACGTGATTTA,0.23
15,ATGGACACGTGGTAAG,-0.16
16,GTAAACACGTGGGGCG,-0.11
17,TTAAGCACGTGAATGT,0.15
18,TTTGTCACGTGCAGTC,0.15
19,TACTGCACGTGTTGGT,0.1
20,GTAGTCACGTGCAAGG,0.14
21,GGCTACACGTGTGTTA,0.1
22,CGGGACACGTGCTGTT,0.08
